In the supplement of paper PMC8047034:
Where a name gives a salt, the structure may show the parent alone. The list shows a part of the results. Repeats are few or missing, and single values can be far off.

Legend:
[1] = tested on: OVCAR4; experiment: log2 surviving fraction (library drug vs vehicle, or drug + carboplatin vs carboplatin alone; relative to plate median); ovarian cancer lines: OVCAR4 is platinum-sensitive and Ov4Carbo platinum-resistant; higher = more cell survival; settings: library drug concentration 10 µM, 7 days
[2] = tested on: Ov4Carbo; experiment: as above; settings: library drug concentration 10 µM, 7 days

SMILES: CCC(=O)O[C@]1(C(=O)CCl)[C@@H](C)C[C@H]2[C@@H]3C[C@H](F)C4=CC(=O)C=C[C@]4(C)[C@@]3(F)[C@@H](O)C[C@@]21C [Halobetasol Propionate]
- log2 surviving fraction ([1]; carboplatin co-treatment 0 µM): -1.11
- log2 surviving fraction ([1]; carboplatin co-treatment 5 µM): -1.41
- log2 surviving fraction ([2]; carboplatin co-treatment 0 µM): -0.322
- log2 surviving fraction ([2]; carboplatin co-treatment 5 µM): -0.341

SMILES: C[N+](C)(C)CC(O)CC(=O)[O-] (racemic) [DL-Carnitine hydrochloride]
- log2 surviving fraction ([1]; carboplatin co-treatment 0 µM): -0.625
- log2 surviving fraction ([1]; carboplatin co-treatment 5 µM): -0.124
- log2 surviving fraction ([2]; carboplatin co-treatment 0 µM): -0.135
- log2 surviving fraction ([2]; carboplatin co-treatment 5 µM): -0.642

SMILES: CCOc1nc2cccc(C(=O)OCc3oc(=O)oc3C)c2n1Cc1ccc(-c2ccccc2-c2noc(=O)[nH]2)cc1 [Azilsartan Medoxomil (TAK-491)]
- log2 surviving fraction ([1]; carboplatin co-treatment 0 µM): 1.19
- log2 surviving fraction ([1]; carboplatin co-treatment 5 µM): 0.656
- log2 surviving fraction ([2]; carboplatin co-treatment 0 µM): 0.624
- log2 surviving fraction ([2]; carboplatin co-treatment 5 µM): 0.00879

SMILES: CCOC(=O)CCC(=O)O[C@H]1[C@H](O[C@@H]2[C@@H](C)[C@H](O[C@H]3C[C@@](C)(OC)[C@@H](O)[C@H](C)O3)[C@@H](C)C(=O)O[C@H](CC)[C@@](C)(O)[C@H](O)[C@@H](C)C(=O)[C@H](C)C[C@@]2(C)O)O[C@H](C)C[C@@H]1N(C)C [Erythromycin Ethylsuccinate]
- log2 surviving fraction ([1]; carboplatin co-treatment 0 µM): -0.732
- log2 surviving fraction ([1]; carboplatin co-treatment 5 µM): 0.598
- log2 surviving fraction ([2]; carboplatin co-treatment 0 µM): -0.246
- log2 surviving fraction ([2]; carboplatin co-treatment 5 µM): 0.544

SMILES: CN1CCC(=C2c3ccccc3CCc3sccc32)CC1 [Pizotifen malate]
- log2 surviving fraction ([1]; carboplatin co-treatment 0 µM): -0.342
- log2 surviving fraction ([1]; carboplatin co-treatment 5 µM): -1.22
- log2 surviving fraction ([2]; carboplatin co-treatment 0 µM): -1.26
- log2 surviving fraction ([2]; carboplatin co-treatment 5 µM): -2.28

SMILES: Nc1ncnc2c1ncn2[C@@H]1O[C@H](COP(=O)(O)OP(=O)(O)OP(=O)(O)O)[C@@H](O)[C@H]1O [ATP (Adenosine-Triphosphate)]
- log2 surviving fraction ([1]; carboplatin co-treatment 0 µM): 0.658
- log2 surviving fraction ([1]; carboplatin co-treatment 5 µM): 1.8
- log2 surviving fraction ([2]; carboplatin co-treatment 0 µM): 1.24
- log2 surviving fraction ([2]; carboplatin co-treatment 5 µM): 1.77

SMILES: CN1CCC[C@@H]1CCO[C@](C)(c1ccccc1)c1ccc(Cl)cc1 [Clemastine Fumarate]
- log2 surviving fraction ([1]; carboplatin co-treatment 0 µM): -1.74
- log2 surviving fraction ([1]; carboplatin co-treatment 5 µM): -0.791
- log2 surviving fraction ([2]; carboplatin co-treatment 0 µM): -1.89
- log2 surviving fraction ([2]; carboplatin co-treatment 5 µM): -1.71
